Source: PubChem BioAssay AID651820 (National Center for Advancing Translational Sciences (NCATS), 2012)
In all, about 340,000 compounds went through this assay and about 12,000 (3.5%) were called active. This list was built around the results that the source calls inconclusive (neither active nor inactive); the mix of calls is not that of the screen. Calls come from the whole dose curve; as a rule, active = well fitted inhibition curve with a large enough effect; inconclusive = small, poorly fitted or top-dose-only effect, or another doubt; inactive = no such curve, though single readings can be large or run the other way. Potencies of inconclusive entries are left out as doubtful fits.

test: qHTS Assay for Inhibitors of Hepatitis C Virus (HCV); conditions: Huh7.5.1 HCVcc-Cre (HCVcc is cell-culture hepatitis C virus) infection, luciferase reporter, 44 h; activity change, negative = inhibition: at 41.8 µM (top of the series) unless noted
How it was run: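 HCVcc-Cre virus at an moi near 0.5 was added right after compound to cells cultured 4 h from seeding (1,000 cells/well). Luciferase activity was determined 44 h later, 15 min after substrate addition at RT.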
% is set by controls: 0 for no effect and ±100 for the full control effect; potency is the fitted concentration of half-maximal effect; tags give direction and shape of the fitted curve.

Compound | Potency | activity change, negative = inhibition
O=C(NCC(=O)N1CCN(C/C=C/c2ccccc2)CC1)c1ccc(Br)cc1 | inconclusive [inhibitor, partial curve] | 
Clc1cccc(Cl)c1CSc1nnc(-c2ccncc2)s1 | inconclusive [inhibitor, partial curve] | 
CCN1CCN(CCCN(Cc2ccco2)C(=S)Nc2cc(Cl)ccc2C)CC1 | inconclusive [inhibitor, full curve, poor fit] | 
O=c1[nH]c(=O)n(Cc2ccccc2)c2c1C(C(F)(F)F)(C(F)(F)F)N=C(c1ccco1)N2 | inactive | 
O=C(NCc1nnc2c(C(F)(F)F)cc(Cl)cn12)c1ccc2c(c1)OCO2 | inactive | 
COc1ccccc1-n1cnnc1SCC(=O)Nc1cc(C(C)(C)C)nn1-c1ccccc1 | inconclusive [inhibitor, partial curve, poor fit] | 
COC(=O)c1ccc(OCC(O)Cn2nnc3ccccc32)cc1 (centres undefined) | inconclusive [inhibitor, single point] | 
CC1CCC(=O)N(CCSc2ccccc2)CC1 (centres undefined) | inactive | 
Cc1ccc(NNC(=O)c2ccc(Cl)cc2)nn1 | inactive | 
Cc1cc(C)c(CN2CCC(n3nccc3NC(=O)c3ccccc3Cl)CC2)cc1C | inconclusive [inhibitor, partial curve] | 
COc1ccc2c(C)cc(SCn3nnc4ccccc4c3=O)nc2c1 | inactive | 
CCN(CC)c1ccc(CNCCc2ccccc2F)cc1 | inconclusive [inhibitor, single point] | 
COCCn1c(N)c(N(Cc2ccccc2)C(=O)CSCC(=O)Nc2ccc(OC)cc2)c(=O)[nH]c1=O | inconclusive [inhibitor, single point] | 
COc1ccc(C2(O)CN(c3ccccc3)C3=[N+]2CCS3)cc1OC (centres undefined) | inconclusive [inhibitor, single point] | 
CC1CC(Nc2ccccc2)c2ccccc2N1C(=O)c1ccco1 (centres undefined) | inactive | 
Cc1ccc(C)c(/C(O)=C2\C(=O)C(=O)N(CCCN3CCOCC3)C2c2cccnc2)c1 (centres undefined) | inactive | 
O=C(CSC1=NCCS1)N1CCN(c2ccc(Cl)cc2)CC1 | inconclusive [inhibitor, single point] | 
CCC(C)(C)n1nnnc1CN(Cc1cc2cc(OC)ccc2[nH]c1=O)C1CCCC1 | inconclusive [inhibitor, partial curve] | 
Cc1ccc(-n2ncc(-c3nnc(SCC(=O)NC4CCCC4)o3)c2N)cc1C | inconclusive [inhibitor, single point] | 
COc1ccc(NC(=O)N2CCC(C(=O)c3ccc(F)cc3)CC2)cc1 | inconclusive [inhibitor, single point] | 
O=[N+]([O-])c1c2ccccc2cc2ccccc12 | inconclusive [inhibitor, full curve, poor fit] | 
Cc1c(C(=O)N2CCN(c3ccccc3F)CC2)oc2c1C(=O)CC(C)(C)C2 | inconclusive [inhibitor, single point] | 
Cc1cc(SCC(=O)N/N=C/c2ccccc2C(=O)O)c(C)cc1Br | inactive | 

Compound | Potency | activity change, negative = inhibition
COc1cc(NC(=O)c2cc3ccccc3o2)ccc1NC(=O)c1ccco1 | inconclusive [inhibitor, partial curve, poor fit] | 
CCCC(=O)Nc1nc2ccc(S(=O)(=O)N3CCCCC3)cc2s1 | inconclusive [inhibitor, partial curve] | 
Cc1ccc(-c2ccc(/C=N/N3C(=O)C4C5C=CC(C6CC56)C4C3=O)o2)c([N+](=O)[O-])c1 (centres undefined) | inconclusive [inhibitor, full curve] | 
O=C(O)CSc1nnnn1-c1ccc2c(c1)OCCO2 | inactive | 
CC(C)c1ccc(/C=N/NC(=O)c2cccc(Cl)c2)cc1 | active: 7.08 µM | 
COc1cccc(CC2(CO)CCCN(Cc3ccccc3Cl)C2)c1 (centres undefined) | inconclusive [inhibitor, single point] | 
Cc1ccc(CN2C(=O)C[C@@H](NC(=O)OCC3c4ccccc4-c4ccccc43)C/C=C\C2c2ccc(C)cc2)cc1 (some centres undefined) | inconclusive [inhibitor, single point] | 
Cc1cccc(N(C)S(=O)(=O)c2ccc(-c3cnc(C4CC4)o3)cc2)c1 | inconclusive [inhibitor, single point] | 
Cc1cc(NC(=O)Nc2cccc3ccccc23)no1 | inconclusive [inhibitor, single point] | 
COc1ccc(C(=O)OCC(O)COC(=O)c2ccc(OC)cc2)cc1 | inactive | 
O=C(Cc1ccc(Cl)c(Cl)c1)Nc1ccccc1N1CCCC1 | inconclusive [inhibitor, single point] | 
COc1ccc(Cl)cc1NC(=O)C(C)OC(=O)Cn1cc(C(F)(F)F)ccc1=O (centres undefined) | inconclusive [inhibitor, single point] | 
OCCNc1nc(N2CCN(c3ccccc3)CC2)nc2ccccc12 |  | inconclusive: -34.2% [inhibitor]
C/C(=N\NC(=O)c1ccoc1C)c1cccc2ccccc12 | inconclusive [inhibitor, full curve, poor fit] | 
COC(=O)c1ccc2[nH]c3cccc(/C(=C/c4ccccc4)c4ccccc4)c3c2c1 | inconclusive [inhibitor, single point] | 
O=C(NC(=S)Nc1ccccc1)c1cccs1 | inactive | 
C=C(C)C1CC=C(CN2CCN(Cc3ccccc3)CC2)CC1 (centres undefined) | inactive | 
Cc1cc2oc3c(c(=O)c2cc1C)C(c1ccc(F)cc1)N(CCCN1CCOCC1)C3=O (centres undefined) | inconclusive [inhibitor, single point] | 
CC1CCCC(C)N1C(=O)COC(=O)C1CCN(S(=O)(=O)c2ccc3c(c2)OCCO3)CC1 (centres undefined) |  | inconclusive: -61.3% [inhibitor]
CCOC(=O)N1CCN(C(=O)COC(=O)c2ccccc2NCCO)CC1 | inconclusive [inhibitor, single point] | 
O=S(=O)(c1ccc(SCCOc2ccccc2)nc1)N1CCCC1 | inconclusive [inhibitor, single point] | 
CCOC(=O)C1(C)C=C(Nc2ccc(NC(C)=O)cc2)C(=O)N1c1ccc(NC(C)=O)cc1 (centres undefined) | inactive | 
COc1ccc2cc(CCNC(=O)C3CC3)c(=O)[nH]c2c1 | inactive | 

Compound | Potency | activity change, negative = inhibition
CC(=O)n1cc([C@H]2C=C(C(=O)N3CCN(Cc4ccc5c(c4)OCO5)CC3)O[C@@H](OCCCCO)C2)c2ccccc21 | inconclusive [inhibitor, single point] | 
O=C(COC(=O)c1ccc(NS(=O)(=O)c2cccs2)cc1)Nc1nc2c(F)c(F)c(F)cc2s1 | inactive | 
COc1ccc(Cl)cc1NC(=O)COC(=O)C1COc2ccccc2O1 (centres undefined) | inactive | 
N#C/C(=C(/O)c1ccc([N+](=O)[O-])s1)c1nc2ccccc2[nH]1 | inconclusive [inhibitor, full curve] | 
COC(=O)c1c(NC(=O)COC(=O)[C@@H](NS(=O)(=O)c2ccccc2)C(C)C)sc2c1CCC2 | inconclusive [inhibitor, partial curve] | 
CS(=O)(=O)N1CCN(c2ccccc2NC(=O)c2ccco2)CC1 | inconclusive [inhibitor, partial curve, poor fit] | 
COc1ccc(/C=N/Nc2cc(N(C)C)nc(N(C)C)n2)cc1 | inconclusive [inhibitor, single point] | 
O=C(Cn1cnc2c(nnn2Cc2ccc(F)cc2)c1=O)NCc1ccco1 | inactive | 
Cc1c(C(=O)O)sc(=S)n1-c1ccc(Cl)cc1 | inactive | 
CCCc1cc2c(cc1NC(=O)c1ccccc1Cl)OCO2 | inconclusive [inhibitor, single point] | 
CCN1C(=O)[C@H]2[C@@H](c3ccc(-c4ccc(OC)cc4)c(OC)c3)N[C@@](Cc3ccccc3)(C(=O)OC)[C@H]2C1=O | inconclusive [inhibitor, partial curve] | 
CCCN1CC(=O)N2C(c3ccccc3)c3[nH]c4ccccc4c3C[C@H]2C1=O (some centres undefined) | inactive | 
CCOC(=O)C1=C(C)N=C2SC(C)C(=O)N2C1c1ccc(OC(C)=O)c(OC)c1 (centres undefined) | inactive | 
COC(=O)C1=C(O)/C(=C\c2cc(C)n(-c3ccccc3F)c2C)N=C1C | inconclusive [inhibitor, single point] | 
CCn1c2ccccc2c2cc(NC(=O)CNC)ccc21 | inconclusive [inhibitor, single point] | 
O=C(Nc1cccc(S(=O)(=O)N2CCCCC2)c1)c1cc(=O)[nH]c2ccccc12 | inconclusive [inhibitor, single point] | 
CC1CCCC(NC(=O)Cn2cc([N+](=O)[O-])ccc2=O)C1C (centres undefined) | inactive | 
O=S(=O)(c1ccc(N2CC=C(c3ccccc3)CC2)nc1)N1CCCC1 | inconclusive [inhibitor, partial curve] | 
CCN1C(=O)N(C)C(N(O)C(=O)NC)C1(C)C (centres undefined) | inactive | 
CCN(CC(=O)Nc1ccc(C(C)=O)cc1)CC(=O)Nc1cccc(OC)c1 | inconclusive [inhibitor, partial curve] | 
Cc1nc2ccn(Cc3ccccc3)c(=O)c2cc1C(=O)N1CCN(c2ccc(F)cc2)CC1 | inconclusive [inhibitor, partial curve] | 
Cc1cc(C)cc(C(=O)N2CCN(c3ccccn3)CC2)c1 | inactive | 
COC(=O)C1=C(c2cccc(C#N)c2)C[C@@H]2CC[C@H]1N2C(=O)NCCOc1ccccc1 | inactive | 
